Test results taken from the RNAGym collection of RNA variant scans (doi:10.7554/elife.90254).
Read counts are not given, so values of variants with three or more changes are uncertain.

B1: LINE1-full (parent)
chain: UACGUAGGUGGUUUUCCCCUGAUAGUGCUAAGGGGGCCUGGAAGUUUGGACUGGGCAGAGCUCAACACAGCGUGGCAAAGUGGCUGUGGCUAGACUGCCUCUCUGGAUUCCUCGUCACUCAGCAGGGCAUCUCUGAGAGAAAUGCC

Variants of: B1
Test: self-cleavage, relative activity (ratio to wild type); higher = more cleavage; in vitro, sequencing; the parent is a self-cleaving ribozyme

Row | Variant | self-cleavage
1 | U5C U12C U20A U96C C128U | 1.12
2 | U5C U12C U73A | 1.31
3 | U5C U12C U108C A142G | 1.67
4 | U5C U12G G40A U81C U96C U134A | 0
5 | U5C U13A U29C G72U A121U | 0.97
6 | U5C U13C A42U U46C A79G | 1.53
7 | U5C U13C A78G | 1.79
8 | U5C U13C U100A | 0.72
9 | U5C U13G A129G | 1.46
10 | U5C U14C U39A A57U A69G U73A A124G U134C | 0.54
11 | U5C U14G U81A U87C A124G | 0.48
12 | U5C U15A A78U | 0.96
13 | U5C U15A U104C | 1.15
14 | U5C U15C A77G U112C A142G | 1.69
15 | U5C U15C C63U | 0.16
16 | U5C U15C G72U U104A U132C | 0.67
17 | U5C U15C U20C G54U G74A U96C | 0.19
18 | U5C U15C U39A A142G | 0.92
19 | U5C U15C U96A | 0.11
20 | U5C U20A U62A | 0.22
21 | U5C U20C U81A | 0.75
22 | U5C U20C U109C A129G U130C | 0
23 | U5C U20G U52A A67U A69U | 0
24 | U5C U23C A138G | 0.97

Row | Variant | self-cleavage
25 | U5C U23C C68U U102C | 0.31
26 | U5C U23C U46G | 0
27 | U5C U26G U45A U87C A124C A138U | 2.3
28 | U5C U39A A124G | 0.51
29 | U5C U39A A129G | 1.5
30 | U5C U39C A57U U87A U109C | 0.2
31 | U5C U39C U46A A64G U143A | 0.28
32 | U5C U39C U134A | 0
33 | U5C U39G A140G | 0.81
34 | U5C U45A A50U | 0.94
35 | U5C U45C A50U U108C U115A | 0
36 | U5C U45C U47A A69G U96C | 0
37 | U5C U46A A79G | 2.04
38 | U5C U46C A124G | 0.67
39 | U5C U46C A129G | 1.84
40 | U5C U47A A136G U143C | 1.04
41 | U5C U47A U115C | 0.5
42 | U5C U52C A92G | 0
43 | U5C U62A U134A A136G | 0
44 | U5C U62C A77G | 0
45 | U5C U62C G80U A94G | 0.27
46 | U5C U73C A121U | 0.77
47 | U5C U85C C118A A140G | 0.46
48 | U5C U85C U119C | 0.37

Row | Variant | self-cleavage
49 | U5C U87A G114A U119C | 0.11
50 | U5C U87C A94G U108A | 0.4
51 | U5C U87C U91G A129G | 0
52 | U5C U87C U100C U102A | 0
53 | U5C U87G A92G U143C | 0
54 | U5C U91C C146U | 0.47
55 | U5C U100A A140G | 0.83
56 | U5C U104C U115C A117U U132C U143C | 0
57 | U5C U130A A141G | 2.92
58 | U5G A24G U29A U46A U96C | 0
59 | U5G A67G G126U | 0.71
60 | U5G G83U G114A | 0.44
61 | U5G U12C U96C | 0.52
62 | U5G U13C A43G | 0.56
63 | U5G U13C A94G | 0.21
64 | U5G U14C G55A U100C A117G A124U | 0
65 | U5G U46C A77G U112C A124U | 0.94
66 | U5G U46C U109A U134C | 1.92
67 | U5G U96G C128U | 0.42
68 | A6C A50G U62A U81A | 0
69 | A6C A94G U96A A124U A129U | 0.09
70 | A6C A107U U130C G137A | 1.82
71 | A6C U13C U26C G83U U112C | 0
72 | A6C U20A U29C G114A | 1.08

Row | Variant | self-cleavage
73 | A6C U62C A67G U119A | 0
74 | A6C U96A A121U | 0.26
75 | A6G A22C A31U A65U | 0.15
76 | A6G A22G G25A G36U U100C | 1.38
77 | A6G A22G U109C U130C | 0
78 | A6G A22U U104C | 0.24
79 | A6G A31U A129U | 1.49
80 | A6G A42G A43G G54C | 1.19
81 | A6G A42G A65G A92G C118U | 0
82 | A6G A43G A92G | 0.66
83 | A6G A50G A78G | 0.54
84 | A6G A50G A138G | 0
85 | A6G A57C G88A U132C | 0.12
86 | A6G A57G A67U A77G U85C | 0
87 | A6G A57U U130C | 0
88 | A6G A64G G106A U115C | 0.69
89 | A6G A65G C101U | 0.29
90 | A6G A65G G74A U85C A140G A142G U143C | 0.22
91 | A6G A69G U73C U115A | 0
92 | A6G A69G U81A | 0.1
93 | A6G A69U G89C U91C A142G | 0
94 | A6G A77U A79U U85A | 0.32
95 | A6G A77U A92U | 0.87
96 | A6G A78G A121G A129U | 1.27

Row | Variant | self-cleavage
97 | A6G A78G C113A U119A | 0.44
98 | A6G A79G A136G | 2.04
99 | A6G A79G U134C | 1.08
100 | A6G A92G A136U | 0
101 | A6G A94G U108A C146U | 0.77
102 | A6G A107G A142G | 1.64
103 | A6G A107U U130A A140G | 1.07
104 | A6G A124G U132A | 0
105 | A6G C19U A117G | 1.06
106 | A6G C28U U130G | 1.06
107 | A6G C37U A50G A78G U112C | 1.17
108 | A6G C90U A92G A129G | 0.1
109 | A6G C95U A140G | 0.27
110 | A6G C103A U112A A117U | 0.67
111 | A6G C120A G144A | 0.6
112 | A6G G8A U47A | 0.85
113 | A6G G32A A57G A77G | 0.5
114 | A6G G33C U87C U100A | 0.18
115 | A6G G40U U62A U100A U104C A141U | 0.26
116 | A6G G53U U112A | 0.66
117 | A6G G54A A57U U81C A129G | 0.33
118 | A6G G88A U108G A124U | 0.13
119 | A6G U9A G49U U62C A121C | 0.16
120 | A6G U9A U12C U62C | 0.19

Row | Variant | self-cleavage
121 | A6G U9C A121G | 1.64
122 | A6G U12A A65G G80A A92G A117G | 0
123 | A6G U12C A79G | 1.11
124 | A6G U12C U15C A31U A69U | 0.39
125 | A6G U12C U46A | 0.39
126 | A6G U12C U87C A141G | 0.3
127 | A6G U12C U104C | 1.23
128 | A6G U12G C56U A124G | 0.27
129 | A6G U13A C51A A77G A121G | 1.15
130 | A6G U13A U108C | 1.19
131 | A6G U13C A43U A77U | 0.28
132 | A6G U13C A77U A107G U119A | 0.88
133 | A6G U13C U14C C66U A136U | 0.53
134 | A6G U13C U39A A57U | 0.64
135 | A6G U13C U52A U104C A138G | 1.6
136 | A6G U13G G40A U73C | 1.8
137 | A6G U14A A31G A94G A141G | 0.18
138 | A6G U14A U47C C61G A64G U100C A129U | 0.77
139 | A6G U14C A79C A140G | 1.31
140 | A6G U14C U62C | 0.18
141 | A6G U15A U104C | 1.46
142 | A6G U15C A43G | 0.64
143 | A6G U15C C66A U100A | 0
144 | A6G U20C U96A U102C | 0.2

Row | Variant | self-cleavage
145 | A6G U23C G27A U102C | 1.31
146 | A6G U23C G44A | 1.05
147 | A6G U23C U52A U130C | 0.75
148 | A6G U26C A65G U143C | 0.71
149 | A6G U29A G144U C145U | 0.85
150 | A6G U29A U47A | 1.34
151 | A6G U29C C38U A65G | 0.42
152 | A6G U29C U46C A117U U134C | 0.74
153 | A6G U39A A141G | 0.98
154 | A6G U39A U100C C101U | 0.33
155 | A6G U39C A140G | 0
156 | A6G U39C U45A U100A | 0.88
157 | A6G U39G A64C U87A | 0
158 | A6G U45C C120A | 1.63
159 | A6G U45C U134G | 0.51
160 | A6G U46A A129G U132A | 0
161 | A6G U46A U85A | 0.84
162 | A6G U47C A57U A69U U81A | 0.34
163 | A6G U47C U73A | 2.22
164 | A6G U52A A57G U100C | 1.31
165 | A6G U52A A67U A77G | 0.47
166 | A6G U52A U134C | 0.98
167 | A6G U52C A121C | 0.63
